Data taken from publication PMC4752459.
No constants are given. Whether binding was seen depends on the method and setting. In cells and extracts the contact can be indirect. Some binding calls cover weakened binding; strength is not graded here. Tags and fused reporters may be left off the sequences shown.

Chains of the proteins cited; added tags and fusions are not shown. Lines headed by an entry give the natural chain unless they say otherwise; changes in a name come on top.
UniProt P32458: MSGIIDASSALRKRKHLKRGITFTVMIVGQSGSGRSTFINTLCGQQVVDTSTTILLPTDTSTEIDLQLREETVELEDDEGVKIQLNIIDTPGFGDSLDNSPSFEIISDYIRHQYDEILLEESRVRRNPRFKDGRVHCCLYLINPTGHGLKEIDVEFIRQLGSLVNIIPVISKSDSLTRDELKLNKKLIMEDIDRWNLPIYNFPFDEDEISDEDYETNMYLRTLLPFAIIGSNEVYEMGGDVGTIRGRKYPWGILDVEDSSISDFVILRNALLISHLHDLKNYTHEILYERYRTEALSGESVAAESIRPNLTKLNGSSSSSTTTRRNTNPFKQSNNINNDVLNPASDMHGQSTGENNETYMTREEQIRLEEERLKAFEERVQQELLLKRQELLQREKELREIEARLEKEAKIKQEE
UniProt P32468: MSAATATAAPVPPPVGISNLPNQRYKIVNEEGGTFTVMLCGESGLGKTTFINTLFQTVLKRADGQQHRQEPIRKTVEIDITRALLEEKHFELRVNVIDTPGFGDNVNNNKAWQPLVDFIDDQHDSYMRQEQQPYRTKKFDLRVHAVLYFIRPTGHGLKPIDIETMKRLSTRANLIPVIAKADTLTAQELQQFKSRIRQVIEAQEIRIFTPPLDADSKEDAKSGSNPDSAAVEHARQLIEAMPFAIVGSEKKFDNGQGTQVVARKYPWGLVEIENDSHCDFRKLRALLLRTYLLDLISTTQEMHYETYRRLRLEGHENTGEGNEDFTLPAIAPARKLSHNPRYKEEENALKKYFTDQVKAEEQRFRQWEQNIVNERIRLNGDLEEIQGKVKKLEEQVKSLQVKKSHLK
UniProt P32457: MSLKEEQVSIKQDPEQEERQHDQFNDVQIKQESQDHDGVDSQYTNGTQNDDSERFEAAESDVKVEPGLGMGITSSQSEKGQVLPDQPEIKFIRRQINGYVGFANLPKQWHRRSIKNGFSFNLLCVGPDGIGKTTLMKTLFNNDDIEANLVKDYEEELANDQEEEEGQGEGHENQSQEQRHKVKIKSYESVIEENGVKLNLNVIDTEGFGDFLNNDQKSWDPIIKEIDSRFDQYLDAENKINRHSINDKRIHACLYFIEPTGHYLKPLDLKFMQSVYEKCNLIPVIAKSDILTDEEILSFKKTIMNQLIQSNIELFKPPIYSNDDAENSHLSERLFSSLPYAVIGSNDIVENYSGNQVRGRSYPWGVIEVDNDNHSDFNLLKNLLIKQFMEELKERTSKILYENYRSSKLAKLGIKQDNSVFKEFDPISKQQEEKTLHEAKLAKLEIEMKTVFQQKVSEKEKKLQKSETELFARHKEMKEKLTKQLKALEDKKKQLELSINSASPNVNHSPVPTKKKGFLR
UniProt P25342: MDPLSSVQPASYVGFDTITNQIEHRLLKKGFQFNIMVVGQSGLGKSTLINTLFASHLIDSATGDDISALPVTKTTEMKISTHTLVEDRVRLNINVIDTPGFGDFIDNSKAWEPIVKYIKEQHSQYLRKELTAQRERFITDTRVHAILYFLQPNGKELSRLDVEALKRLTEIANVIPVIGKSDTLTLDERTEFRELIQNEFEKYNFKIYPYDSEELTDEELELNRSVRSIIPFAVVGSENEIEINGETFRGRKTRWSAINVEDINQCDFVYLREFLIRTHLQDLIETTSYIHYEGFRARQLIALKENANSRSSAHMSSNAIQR

target: recombinant SNAP-tagged yeast septin rods (S. cerevisiae) (UniProt P32458+P32468+P32457+P25342); assay: pull-down; SNAP-tagged septin rods coupled to benzylguanine-Sepharose, blocked with BSA, incubated with yeast extract 2 h at 8°C; 50 mM Tris pH 8.0, 300 mM NaCl; 6his-SNAP beads as control; Western blot with anti-protein A or anti-GFP; only the target purified

Binder | binding
Sfb3-TAP (protein, UniProt P38810 1-929) MSQQNILAASVSALSLDESTVHTGGASSKKSRRPHRAYHNFSSGTVPTLGNSPYTTPQLNQQDGFQQPQAFTPKQFGGFNNGSGSVMSTPVMVSQERFGASEASSPYGQSMLDMTAPQPTSHIVPTQRFEDQAQYLQRSFETCRDSVPPLPTTQFYCVDQGSCDPHLMSLSMYNIPESEHLRAATKLPLGLTIQPFSTLTPNDAEVPTIPLPMDGTPLRCRRCRAYANPKFQFTYDSSVICNICRVKMQVPGEHFAPMGPNGQRSDLNEKSELLHGTVDFLVPSIYNAIQEKELLPLHYVFLIDVSLLANENGSSLAMVEGVRSCIEYISDFQPNCEVAIIVYDNKLRFFNLRPDLDNAQEYIVSELDDVFLPFYNGLFVKPGNSMKIINDTLIKISGYISTDKYSHVPQVCYGSALQAAKLALDTVTGGQGGKIICSLNSLPTIGNGNLSLKRDNAHIAHVKCDNGFYKKLASDFLKSYISLDLYVTNAGFIDMATVGHPVEMTSGILKYYPHFQQETDAFTLVNDMVTNVSNIVGYQALLKVRCSTGLSVEQYYCDSSDNTDHDPIIPVLTRDTTLDVLLKYDSKIKTGTDVHFQTALLYTDIDGVRKVRSINTSGAVSNNIREIFKFINQNPVMRIMIKDVIKTLGDCDFVKIRRLIDDKMVEILTQYRGLVSSNSSTQLILPDSIKTLPAYMLAFEKSELMKPNAQSTRGNERIYDLLKYDSLNSAQLCYKLYPQIVPFHVLLEETDLTFYDANDKLLQINSSSINNLSVRASHSNFINGGCYLIFQGDTIYLWFNENTNRMLLQDLLSVDESLPVSQISLFSGTLPETGTSINQKASNVIKNWQQVVNKSSLPLVLLRPNVDQYYSNVMSQLLCEDKTVNRIESYDNYLVIMHKKIQEKLQKDDFIKVSTAATHENIHQKFVQF | binds
GFP tagged Vps1 (protein, UniProt P21576 1-704) MDEHLISTINKLQDALAPLGGGSQSPIDLPQITVVGSQSSGKSSVLENIVGRDFLPRGTGIVTRRPLVLQLINRRPKKSEHAKVNQTANELIDLNINDDDKKKDESGKHQNEGQSEDNKEEWGEFLHLPGKKFYNFDEIRKEIVKETDKVTGANSGISSVPINLRIYSPHVLTLTLVDLPGLTKVPVGDQPPDIERQIKDMLLKYISKPNAIILSVNAANTDLANSDGLKLAREVDPEGTRTIGVLTKVDLMDQGTDVIDILAGRVIPLRYGYIPVINRGQKDIEHKKTIREALENERKFFENHPSYSSKAHYCGTPYLAKKLNSILLHHIRQTLPEIKAKIEATLKKYQNELINLGPETMDSASSVVLSMITDFSNEYAGILDGEAKELSSQELSGGARISYVFHETFKNGVDSLDPFDQIKDSDIRTIMYNSSGSAPSLFVGTEAFEVLVKQQIRRFEEPSLRLVTLVFDELVRMLKQIISQPKYSRYPALREAISNQFIQFLKDATIPTNEFVVDIIKAEQTYINTAHPDLLKGSQAMVMVEEKLHPRQVAVDPKTGKPLPTQPSSSKAPVMEEKSGFFGGFFSTKNKKKLAALESPPPVLKATGQMTERETMETEVIKLLISSYFSIVKRTIADIIPKALMLKLIVKSKTDIQKVLLEKLYGKQDIEELTKENDITIQRRKECKKMVEILRNASQIVSSV | binds
Sla2-TAP (protein, UniProt P33338 1-968) MSRIDSDLQKALKKACSVEETAPKRKHVRACIVYTWDHQSSKAVFTTLKTLPLANDEVQLFKMLIVLHKIIQEGHPSALAEAIRDRDWIRSLGRVHSGGSSYSKLIREYVRYLVLKLDFHAHHRGFNNGTFEYEEYVSLVSVSDPDEGYETILDLMSLQDSLDEFSQIIFASIQSERRNTECKISALIPLIAESYGIYKFITSMLRAMHRQLNDAEGDAALQPLKERYELQHARLFEFYADCSSVKYLTTLVTIPKLPVDAPDVFLINDVDESKEIKFKKREPSVTPARTPARTPTPTPPVVAEPAISPRPVSQRTTSTPTGYLQTMPTGATTGMMIPTATGAANAIFPQATAQMQPDFWANQQAQFANEQNRLEQERVQQLQQQQAQQELFQQQLQKAQQDMMNMQLQQQNQHQNDLIALTNQYEKDQALLQQYDQRVQQLESEITTMDSTASKQLANKDEQLTALQDQLDVWERKYESLAKLYSQLRQEHLNLLPRFKKLQLKVNSAQESIQKKEQLEHKLKQKDLQMAELVKDRDRARLELERSINNAEADSAAATAAAETMTQDKMNPILDAILESGINTIQESVYNLDSPLSWSGPLTPPTFLLSLLESTSENATEFATSFNNLIVDGLAHGDQTEVIHCVSDFSTSMATLVTNSKAYAVTTLPQEQSDQILTLVKRCAREAQYFFEDLMSENLNQVGDEEKTDIVINANVDMQEKLQELSLAIEPLLNIQSVKSNKETNPHSELVATADKIVKSSEHLRVDVPKPLLSLALMIIDAVVALVKAAIQCQNEIATTTSIPLNQFYLKNSRWTEGLISAAKAVAGATNVLITTASKLITSEDNENTSPEQFIVASKEVAASTIQLVAASRVKTSIHSKAQDKLEHCSKDVTDACRSLGNHVMGMIEDDHSTSQQQQPLDFTSEHTLKTAEMEQQVEILKLEQSLSNARKRLGEIRRHAYYNQDDD | binds
Syp1-TAP (protein, UniProt P25623 1-870) MTEQRTKYADSILTTKSPYEATETIRIRLSQVKLLNKDFYLLFKELANLKRNYAQQLRKIIAENEDITKILNAQMIESNVLTPQEMSAFRFNSLGELRNVWDTVIEELKSDLKSSTEYYNTLDQQVVRELKESVENNTSWRESKDLHSKLSKNAASIEHYSKNNENSSHLEEARRQWDQQSPYLFELFETIDYNRLDTLKNCMLRFQTSFSDYLLNTTKECETVMTKFLAFEPQSEIDRFAKDASQYNFQLSSSSKEVVPNNASPASATGARPVSVSNGAANTEREKKSPQKDKRKSAFGNIGHRLASASSSLTHNDLMNNEFSDSTNNSSLKSKKSSHTLRSKVGSIFGRNKTKNKRQQQSSSNSHIQASITETPNNSSTRVSSTATSSIYQKQRRPTYSSSKSNNWTPGEASDTPPLPPHATPKNVDAPVTADTPPAQTFTPSEVPPSTPQQSSPPTAKEPDSSNLPKTVPISISQPPLQPQSKTKPLPVEPASPSISLPTATVDNQPSGQVDSRPLHIRAPALPPSRKQNFIHNRDSQLYDSLPNHGSGATPTSSSLSSIPQERPVSTLSSQITGELRELNPQATGSSTSLVGQSLFQHSSLDTSQFGLNASIAEVLNASFKDGMLQNSQLIGEIALNYLPNSVMNSPLPIGINLRINNGAKFEKVILNQAFIERVAPEEFKVNPSFIDSRTLGAIKYSIKEPIAPIVIHPVWRFESHQASVVLTVKMSPSLPDEISQIVIEDLVVFVNIDGANATSALSKPQGSFSKEKKRITWRFKEPVVLTRNGEGQRLIARFITDGLAHESAKGVITKFTISETDNVALPHSGAGSGITLTCQELDENNPFGGEWLDVNTKRTLTTGNYHGLA | binds
Ste20-TAP (protein, UniProt Q03497 1-939) MSNDPSAVSELPDKDSLDNGISNDNERAMGGNGDGGDGLRLPRTTGTLNVNALQKGTNAAHEAGGYKSMDPAKNAETTNDDDNNVVSLDDPIQFTRVSSSSVISGMSSSMSPHSNIDETKSLEAVTPNINTSNITPDHSADNTFSTINASESDHQFNDTLLSKLSLTDSTETIENNATVKHQQPVASSTVNSNKSSTDIRRATPVSTPVISKPSMTTTPRQINSASHSLSNPKHKQHKPKVKPSKPEAKSKPVSVKKSFPSKNPLKNSSPPKKQTEKSYYSSSSKKRKSGSNSGTLRMKDVFTSFVQNIKRNSQDDKRASSSSNNSSSSSITTALRISTPYNAKHIHHVGVDSKTGEYTGLPEEWEKLLTSSGISKREQQQNMQAVMDIVKFYQDVTETNGEDKMFKTFNTTTGLPGSPQVSTPPANSFNKFPPSTSDSHNYGSRTGTPMSNHVMSPTLNTDSSSANGKFIPSRPAPKPPSSASASAPIIKSPVMNSAANVSPLKQTHAPTTPNRTSPNRSSISRNATLKKEEQPLPPIPPTKSKTSPIISTAHTPQQVAQSPKAPAQETVTTPTSKPAQARSLSKELNEKKREERERRKKQLYAKLNEICSDGDPSTKYANLVKIGQGASGGVYTAYEIGTNVSVAIKQMNLEKQPKKELIINEILVMKGSKHPNIVNFIDSYVLKGDLWVIMEYMEGGSLTDVVTHCILTEGQIGAVCRETLSGLEFLHSKGVLHRDIKSDNILLSMEGDIKLTDFGFCAQINELNLKRTTMVGTPYWMAPEVVSRKEYGPKVDIWSLGIMIIEMIEGEPPYLNETPLRALYLIATNGTPKLKEPENLSSSLKKFLDWCLCVEPEDRASATELLHDEYITEIAEANSSLAPLVKLARLKKVAENMDADEDNDDDNDNEHINKTNNCDDNNDSKETVNLDVTEDDKQK | binds
